# Source: the RNAGym collection of RNA variant scans (doi:10.1073/pnas.2313332121)
# Variants at the background level are over-represented here.
# B1: TPR 5TU (parent)
# chain: GGAUCUUCUCGAUCUAACAAAAAAGACAAAUCUGCCACAAAGCUUGAGAGCAUCUUCGGAUGCAGAGGCGGCAGCCUUCGGUGGCGCGAUAGCGCCAACGUUCUCAACUAUGACACGCAAAACGCGUGCUCCGUUGAAUGGAGUUUAUCAUG
# Variants of: B1
# Assay: polymerase ribozyme fitness, log enrichment relative to wild type (log ratio); higher = more active; in vitro selection for triplet polymerase activity
# Procedure, shortened: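 Mutant libraries for each subunit of a heterodimeric triplet polymerase ribozyme were made by PCR and then transcribed. Each library underwent one round of in vitro selection in triplicate: annealing with a biotinylated primer, the partner subunit and triplets, frozen incubation at −7 °C, gel excision of extended constructs, streptavidin-bead capture and RT-PCR. Input and output libraries were Illumina-sequenced, and only genotypes with ≥10 input reads and ≥1 read per output were kept. Fitness is the logarithm, base 2, of genotype enrichment over wild-type enrichment, computed from inverse-variance-weighted replicate averages.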
row,Variant,polymerase ribozyme fitness (log ratio)
1,A3G A41C G42C G58A C85A U148A,≤ -4.2
2,A3G A47G U61A G94U C99A C108U U135G,≤ -4.2
3,A3G A60C C93U U145G,-2.53
4,A3G A64G C85G G88C A107G,≤ -4.2
5,A3G A91C C103G C108U,≤ -4.2
6,A3G A97C A107G,≤ -4.2
7,A3G A137U U146G,≤ -4.2
8,A3G C5G G84A G88A,-3.09
9,A3G C5U A19U A39G A107U C131U U148C,≤ -4.2
10,A3G C5U C32A G42U G100A C103G,≤ -4.2
11,A3G C5U C35U C85U A106G,0.235
12,A3G C8G A21U A66C G92C,≤ -4.2
13,A3G C8G A39U,≤ -4.2
14,A3G C8U C87G C114G A137G,≤ -4.2
15,A3G C8U G25C U45G U55G G81C C95U C114U G117U A120G A122G,≤ -4.2
16,A3G C10A G11C A23U A49C A147U,≤ -4.2
17,A3G C10G G34A G83A C105U C129G G143C,≤ -4.2
18,A3G C14G U33A U55A G81A U134A,≤ -4.2
19,A3G C18A A19G U33G C125U,≤ -4.2
20,A3G C18U G34U C95U A115C,-4.09
21,A3G C27U C51A G59A C85U G88A A115U G141A,≤ -4.2

row,Variant,polymerase ribozyme fitness (log ratio)
1,A3G C27U G50A C51U C85A G140U,≤ -4.2
2,A3G C32G A41C C57U A73U G81C G88C A150G,≤ -4.2
3,A3G C32G C35U A49C G50C C85A C103U C118G,≤ -4.2
4,A3G C35A A37U G48U U78A A110U C116A A120C G133C A137U,≤ -4.2
5,A3G C35A C43U G48C C51U U61G U102C,≤ -4.2
6,A3G C35A C72G A73U U77G G92A G133C U148C,≤ -4.2
7,A3G C36U U45A G46C A47G U55A U61A U102A U111G,≤ -4.2
8,A3G C38G G42U G59C G70C U78C C87A,≤ -4.2
9,A3G C38U G83C C132A,≤ -4.2
10,A3G C43U A60C G84A U130A,≤ -4.2
11,A3G C51U C85G C87U,≤ -4.2
12,A3G C51U G71A C85U C99U G136U,≤ -4.2
13,A3G C57G A106G U109C,≤ -4.2
14,A3G C57U G81A G84A C85G C93G C123U G133U A147C U151G G152C,≤ -4.2
15,A3G C79U G88A C96A G126A G140U,≤ -4.2
16,A3G C85G,-3.16
17,A3G C87U,-0.743
18,A3G C87U C132G,-4.07
19,A3G G11A C32U C85G C87A G124U,≤ -4.2
20,A3G G11A C32U G84A G117A U151A,≤ -4.2
21,A3G G25U A89U,≤ -4.2

row,Variant,polymerase ribozyme fitness (log ratio)
1,A3G G34C G83U G88A C99G A121U G140U,≤ -4.2
2,A3G G34U C57A G86A G136U G141C,≤ -4.2
3,A3G G42C A47U C79A A107G C114G A121U C125G C129A,≤ -4.2
4,A3G G58A G86U U111G U135G G136U U145A,≤ -4.2
5,A3G G59A U77C C95U U139G,≤ -4.2
6,A3G G59U C69U A91C A97G,≤ -4.2
7,A3G G71U C96A A107G C116U C125G,≤ -4.2
8,A3G G94A,-1.67
9,A3G U4A A17C A52G G94C U102C C131U,-1.71
10,A3G U4C A28G A29U A37C C85A G141C,≤ -4.2
11,A3G U6A A24U C43A C93U C125U G143A,≤ -4.2
12,A3G U6A U31G G88U,≤ -4.2
13,A3G U7C U13G G65U A66C A89U C95A C125G,≤ -4.2
14,A3G U7G A21U A23G A29G C95G,≤ -4.2
15,A3G U7G C8A A20U C85A G94C A121C,≤ -4.2
16,A3G U9G C36A G67A G68C A73G U135G,≤ -4.2
17,A3G U9G G42U C85G,≤ -4.2
18,A3G U13C A28G C54G U56G G84A A110C,≤ -4.2
19,A3G U13G A21U A40U C69A C79G G80A G83U C85U G86U G136C,≤ -4.2
20,A3G U13G U144C,0.104
21,A3G U33G G58A G67U G94A A110U C125A U135C,≤ -4.2

row,Variant,polymerase ribozyme fitness (log ratio)
1,A3G U44G C57A G59U G68C C87G,≤ -4.2
2,A3G U53C A60C G62C A91G U104C C118A A120U U134G,≤ -4.2
3,A3G U53G C85G C93G C125U G141A A142G,≤ -4.2
4,A3G U56A C72U A91U C132A,≤ -4.2
5,A3G U61A C72G C87A G136U,≤ -4.2
6,A3U A12C A29G A52C A73G C87U A97U,≤ -4.2
7,A3U A12G A26C G81A C87G A142C,≤ -4.2
8,A3U A12G A28U C87U,≤ -4.2
9,A3U A12G C43U C51G U53A U56A U82G G83A C93A C96G A98U,≤ -4.2
10,A3U A12G C43U C54U G71U C79A A120C,≤ -4.2
11,A3U A12G C87G,-4.02
12,A3U A12U A16C A52U A91C C93U C95U G143A,≤ -4.2
13,A3U A12U A16U G42A C76A C87A,≤ -4.2
14,A3U A12U G80C U135A,≤ -4.2
15,A3U A16C A60G C87A U102G C108G U127A U145G,≤ -4.2
16,A3U A16C C27U A47U C99G C105U A119G U144C,≤ -4.2
17,A3U A16G A30U C54U U55G U56A G68U G88C,≤ -4.2
18,A3U A16U A17G A23C C93U A106G A122G U139G,≤ -4.2
19,A3U A16U C54U U55A C85U A98C C99U C129G G152U,≤ -4.2
20,A3U A17U U55G G84A C96A G133U G152C,≤ -4.2
